# The other results are listed elsewhere or left out. At the low end of the ranking the order means little.
# Biological target: MAX:MAX (p21) (UniProt P61244-2)
# Assay: protein-binding microarray (anti-MAX antibody)
# Conditions: PBM: 15 mM Tris-HCl pH 7.5, 100 mM KCl, 0.075% NP40, 7.5 mM beta-mercaptoethanol, 375 ng/ul BSA, 8 ng/ul poly(dA-dT):(dA-dT), 550 ng complex, 60 min, room …; high values mean tight binding; double strand, one strand shown; sequences stand for … in CCGGC…TTAATAGCTAAGATTACTATATCGACG
row,Sequence,binding signal (log2 normalized fluorescence)
1,AAACACGATGTT,3.26
2,TGAAGCAGAGTA,-0.731
3,TGAATCCTGGTA,-0.765
4,TGACTTTCCGTA,-0.822
5,TAGGACGTGGTA,1.63
6,TGAGGGGCCGTA,-0.0149
7,TGAAGAGAGGTA,-0.631
8,TGACACGCAATA,1.76
9,TGAGCTGCTGTA,-0.535
10,TGACCCAGGGTA,-0.583
11,TGACACAGAGTA,-0.449
12,TGCCACGTGGTA,3.42
13,TGATTAAATGTA,-1.02
14,TGACCGCAGGTA,0.00405
15,TGAGGCGGAGTA,-0.971
16,TGAGTCGCAGTA,-0.657
17,TGAGATTTCGTA,-1.43
18,TGAAGGTCCGTA,-0.587
19,TGAGGTTGTGTA,-0.704
20,TGACCGGGCGTA,-0.448
21,CGACCTTAAGGC,-0.248
22,TGACAAGGTGTA,0.739

row,Sequence,binding signal (log2 normalized fluorescence)
1,TGAAGTACACTT,-0.17
2,TGACACGTGCTT,3.34
3,TGAGTCAAGGTA,-0.848
4,TGAAGATAAGTA,-0.873
5,TGATTACATGTA,0.327
6,TGACTGTGTGTA,0.158
7,TGAAAGTTGGTA,-1.08
8,CGACACGTTGTT,3.13
9,TGACACGTGCGA,3.02
10,TGATCACTAGTA,-0.29
11,TGACACATCGTA,0.536
12,TGACGGTGCGTA,0.45
13,TGACACGTGTGG,3.39
14,AGAAACGCGGTA,1.99
15,TGATTTACGGTA,-0.917
16,TGAACAAGGGTA,-0.416
17,TGACAAGCGGTA,-0.214
18,TGACCCGACGTA,-0.294
19,TGAATTTAGGTA,-1.2
20,TGATAAGGTGTA,-0.569
21,TGAACGCTAGTA,-0.36
22,TAACACGTGGTT,3.27

row,Sequence,binding signal (log2 normalized fluorescence)
1,TGACGCCAAGTA,-0.36
2,TGAGTGGGCGTA,0.177
3,TGAAACATCGTA,-0.242
4,TGATGCCGTGTA,0.348
5,TGAGCAAGCGTA,-0.429
6,TGATTATGCGTA,-0.486
7,TGAAAGTGTGTA,0.763
8,TGACACGTCAAA,1.08
9,TGATCTTTAGTA,-1.24
10,TGAATTCGAGTA,-0.99
11,TGACACGTGCCT,3.18
12,TAGCACGTGGCA,3.24
13,TGATCGATGGTA,-0.503
14,TGACTAGGAGTA,-0.548
15,TGAAAACATGTA,1.71
16,TGAAACAAAGTA,-0.719
17,TGAACGATAGTA,-0.758
18,TGAGTCGCTGTA,-1.01
19,TGAGGGAGGGTA,0.433
20,TGAGTTATAGTA,-1.04
21,TGAGTCATGGTA,0.473
22,TGACACGTAGTA,1.19

row,Sequence,binding signal (log2 normalized fluorescence)
1,TGAGGATTGGTA,-0.564
2,TGACCAAGGGTA,-0.538
3,TGACCTGTGGTA,0.594
4,TGCCAGGTGGTA,2.89
5,TGACTCGCGGTA,0.809
6,TGACCTGGTGTA,0.504
7,TGATGAGGTGTA,-0.175
8,TGAGTCGTCGTA,-1.07
9,TGACTCTTTGTA,-0.868
10,TGAAATAAAGTA,-0.877
11,TGACCAGGAGTA,0.00123
12,TGAATAATTGTA,-1.14
13,TGAATACATGTA,0.485
14,TGACTAGATGTA,-0.59
15,TCAAACGTGGTA,3.03
16,TGACACGCTATA,2.77
17,TCACACGAGGTT,3.32
18,TGACCATTCGTA,0.158
19,TGAACGGCTGTA,-0.4
20,TGATGGGCCGTA,-0.215
21,TGAATCGGGGTA,-0.384

# Reference: PMC5515408
